Experimental data: PubChem BioAssay AID2451 (National Center for Advancing Translational Sciences (NCATS), 2010)
“And” between values parts separate entries of the source, which are not always exact repeats. Identical values can stand only once. Out of some 290,000 compounds screened, about 2,100 (0.72%) were called active. The inconclusive results got no clear call from the source; some entries with a clear call stand among them for comparison. The call rests on the fitted dose curve; in most records, active means well fitted inhibition curve with a large enough effect; inconclusive means small, poorly fitted or top-dose-only effect, or effect the other way; inactive means flat fitted curve, though single readings scatter. Potencies beside an inconclusive call are fits to weak or partial responses and may not hold up.

target: Fructose-bisphosphate aldolase (Giardia intestinalis (strain ATCC 50803 / WB clone C6)) (UniProt A8B2U2); test: qHTS Assay for Inhibitors of Fructose-1,6-bisphosphate Aldolase from Giardia Lamblia; details: purified Giardia FBPA; series mostly up to 59.6 µM; further: nearly all actives have a fitted effect of over 55% in size
How it was run: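 Giardia FBPA (40 nM reagent) was preincubated 10 min at RT with compound (up to 57.5 uM final), then substrate plus GAPDH/TPI/NAD/arsenate coupling system with diaphorase/resazurin was added; resorufin fluorescence (525/598 nm) was read after 20 min.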
Potency means the concentration at half of the fitted maximal effect; tags describe the fitted curve by direction and shape.

Chain of UniProt A8B2U2 (A8B2U2 whole entry, looked up): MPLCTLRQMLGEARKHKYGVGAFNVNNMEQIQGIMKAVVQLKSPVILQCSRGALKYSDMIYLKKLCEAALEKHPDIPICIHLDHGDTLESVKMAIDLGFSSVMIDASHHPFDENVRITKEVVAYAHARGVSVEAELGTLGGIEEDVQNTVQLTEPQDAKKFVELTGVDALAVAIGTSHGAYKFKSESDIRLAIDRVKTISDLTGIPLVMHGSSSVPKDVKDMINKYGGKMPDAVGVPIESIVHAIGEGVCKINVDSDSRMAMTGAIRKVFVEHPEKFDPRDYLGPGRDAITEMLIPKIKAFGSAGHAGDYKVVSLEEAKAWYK

| Compound | Potency |
| --- | --- |
| C/C(CCc1ccco1)=N\NC(=O)CNc1cccc2ccccc12 | active: 19.9 µM |
| O=C(Nc1ccc(O)cc1)/C(=C\C=C\c1ccccc1)NC(=O)c1ccccc1 | inactive |
| Cc1ccc(-n2c(-c3cccc(C)c3)n[nH]c2=S)cc1 | inactive |
| COc1ccc(/C=C/C(=O)NNc2cc(=O)n(C)c(=O)n2C)cc1OC | inconclusive: 12.6 µM [inhibitor, partial curve] |
| CC(C)c1ccc(OCC(O)CN2CCN(c3ccccn3)CC2)cc1 (configuration not stated) | inconclusive: 25.1 µM [inhibitor, partial curve] |
| CCOC(=O)CCc1c(C)nc(-n2[nH]c(C)c(CCO)c2=O)[nH]c1=O | active: 14.1 µM |
| O=c1cc[nH]c2c1ccc1c(=O)cc[nH]c12 | inconclusive: 14.1 µM [inhibitor, partial curve] |
| Cc1nc(C)c(-c2csc(NCCc3ccccc3)n2)s1 | inconclusive: 17.7 µM [inhibitor, single point] |
| COc1ccc(OCc2cc(C(=O)N(Cc3nccn3C)C(C)C)no2)c2ccccc12 | inconclusive: 14.1 µM [inhibitor, partial curve] |
| O=C(O)c1ccc(COc2ccccc2Cl)cc1 | inconclusive: 14.1 µM [activator, partial curve] |
| CC(C)C[C@@H](CC(=O)N[C@@H](CCC(=O)O)CC(=O)O)NC(=O)[C@@H]1CNCC[C@H]1NC(=O)C[C@@H](NC(=O)C[C@H](Cc1c[nH]c2ccccc12)NC(=O)[C@@H]1CCCC[C@H]1N)C(C)C | inactive |
| CC1=CCC2COC(c3ccc[n+](Cc4ccccc4)c3)C1C2 (configuration not stated) | inconclusive: 12.6 µM [inhibitor, partial curve] |
| CCOC(=O)N=Nc1c2ccccc2c2nc3no[nH]c3nc12 | active: 1.58 µM |
| Nc1cncc(C(=O)O)c1 | inconclusive: 17.7 µM [inhibitor, single point] and inconclusive: 15.8 µM [inhibitor, partial curve] |
| Cc1ccnc(N/N=C/c2ccco2)n1 | inconclusive: 17.7 µM [inhibitor, partial curve] |
| CC(C)C(=O)N1CCN(c2ccc(NC(=O)COc3ccccc3[N+](=O)[O-])cc2)CC1 | inactive |
| Cc1[nH]c(=S)c(C#N)c(C)c1CCC#N | inconclusive: 15.8 µM [inhibitor, single point] |
| N=C(N)SCCN | inconclusive: 25.1 µM [inhibitor, partial curve] and inconclusive: 15.8 µM [inhibitor, partial curve] |
| Cc1ccc(/C=C/C(=O)NCc2cccs2)c(C)c1 | inconclusive: 15.8 µM [inhibitor, partial curve] |
| CCN(c1ccc(NC(=O)COC(=O)c2cc3ccccc3oc2=O)cc1)C(C)C | inactive |
| Clc1ccc(Nc2ncnc3c2cnn3-c2ccccc2)cc1 | inconclusive: 17.7 µM [inhibitor, single point] |
| CN1/C(=C/c2cc[n+](C)c3ccccc23)C=Cc2ccccc21 | inconclusive: 0.998 µM [inhibitor, full curve] |
| CNC(=O)c1[nH]cnc1C(=O)Nc1ccc(OC)cc1 | inconclusive: 25.1 µM [inhibitor, single point] |
| COc1ccc(N2CCN(CC(O)COc3cc(C)ccc3C)CC2)cc1 (configuration not stated) | inconclusive: 20 µM [inhibitor, partial curve] |

| Compound | Potency |
| --- | --- |
| CC(O)C1C(=O)OC2(C)CC(C)(C)NC(=S)N12 (configuration not stated) | inconclusive: 15.8 µM [inhibitor, partial curve] |
| CCOc1cc(CNc2cccc3[nH]c(C)nc23)ccc1OC | inconclusive: 31.6 µM [inhibitor, single point] |
| O=C(NC(Cc1ccccc1)C(=O)O)/C(=C\c1ccco1)NC(=O)c1ccccc1Br (configuration not stated) | inconclusive: 15.8 µM [inhibitor, single point] |
| Cc1ccc(S(=O)(=O)N2c3ccccc3OCC2c2ccccc2)cc1 (configuration not stated) | inconclusive: 17.7 µM [inhibitor, single point] |
| CCc1ccc(CN2CCN(Cc3cc(Br)ccc3O)CC2)cc1 | inconclusive: 15.8 µM [inhibitor, partial curve] |
| S=c1[nH]nc(-c2ccncc2)n1/N=C/C=C/c1ccco1 | inconclusive: 17.7 µM [inhibitor, partial curve] |
| Cc1nc2cc(NC(=O)N3c4ccccc4CC3C)ccc2o1 (configuration not stated) | inconclusive: 17.7 µM [inhibitor, single point] |
| COc1cccc(CNc2ccc(N3CCC(C)CC3)cc2)c1OC | inconclusive: 4.46 µM [inhibitor, partial curve] |
| C/C(=N\Nc1nnc(C)c(=O)[nH]1)C(=O)O | active: 3.54 µM |
| NC(=O)CSc1nnc(CSc2ncccn2)n1-c1ccccc1 | inactive |
| O=C(NC(=S)Nc1cccc2ncccc12)c1cccs1 | inconclusive: 17.7 µM [inhibitor, single point] |
| Cc1[nH]n(-c2ccccc2)c(=O)c1/C=N/NC(=O)COc1ccccc1[N+](=O)[O-] | inconclusive: 44.6 µM [activator, single point] |
| CSc1nc2c(c(=O)n1-c1ccc(F)cc1)SCC2 | inactive |
| COCCCNCCCOc1ccc(C)cc1Br | inconclusive: 1.58 µM [inhibitor, partial curve] |
| CCOc1cc(CNc2ncc(-c3ccc(OC)cc3)n2C)ccc1O | inconclusive: 11.2 µM [inhibitor, partial curve] |
| CC(=O)Nc1ccc(NC(=O)C/C(C)=N/NC(=O)C(=O)Nc2ccc(C)c(Cl)c2)cc1 | inactive |
| Cc1ccn2c(-c3csc(NCc4ccco4)n3)c(C)nc2c1 | inconclusive: 7.92 µM [inhibitor, partial curve] |
| COC(=O)c1c(C)oc2ccc(N(C(=O)c3ccncc3)S(=O)(=O)c3ccc4ccccc4c3)cc12 | inactive |
| CCn1c2ccccc2c2cc(NC(=O)CNCC3CCCO3)ccc21 (configuration not stated) | inconclusive: 19.9 µM [inhibitor, partial curve] |
| O=C(Nc1ccc2c(c1)OCO2)N1CCCC1 | inactive |
| O=C1ON=C(c2cccc([N+](=O)[O-])c2)/C1=C/c1ccc(O)cc1 | inconclusive: 11.2 µM [inhibitor, partial curve] |
| c1ccc(-c2cc3c(-n4cccc4)ncnc3o2)cc1 | inactive |
| O=C(NCCCNC(=O)c1cncc(O)c1)c1cncc(O)c1 | inconclusive: 25.1 µM [inhibitor, single point] |
| CC(C)c1ccc(OCc2nc(-c3ccccn3)no2)c(Br)c1 | inactive |

| Compound | Potency |
| --- | --- |
| O=C(Nc1ccccc1N1CCCCC1)c1ccc(-c2ccc(Cl)cc2)o1 | inactive |
| CC1CCC(CN2CCN=C2Nc2ccccc2)CC1 (configuration not stated) | inconclusive: 35.5 µM [activator, single point] |
| CCOCCCNC(=O)c1ccc(N2CCCC2)c(NS(=O)(=O)c2ccc(C)cc2)c1 | inconclusive: 28.1 µM [inhibitor, single point] |
| CCc1nnc(N/N=C/c2c(F)cccc2Cl)n1N | active: 20 µM |
| S=c1[nH]nc(-c2ccco2)n1/N=C/c1ccccn1 | inconclusive: 9.98 µM [inhibitor, partial curve] |
| O=S(=O)(O)c1cccc2c(N=Nc3ccc(O)c4ncccc34)cccc12 | inconclusive: 25.1 µM [inhibitor, partial curve] |
| Cc1cc(N2CCCCC2)n2nc(C)c(-c3ccccc3)c2n1 | inactive |
| Cc1ccc(C(=O)NCCNC(=O)COc2ccc(Cl)cc2)cn1 | inactive |
| CCS(=O)(=O)c1ccc(OC)c(N=Nc2ccc(O)c3ncccc23)c1 | inactive |
| CCOC(=O)c1c(C)oc2c1c(C(c1ccncc1)N1CCOCC1)c(O)c1ccccc12 (configuration not stated) | inconclusive: 3.54 µM [inhibitor, full curve] |
| O=C(O)CN1C(=O)/C(=C\c2ccc(OC(=O)c3ccco3)cc2)SC1=S | inconclusive: 14.1 µM [inhibitor, single point] |
| COC(=O)c1c(-c2ccc(OC)c(OC)c2)csc1N | active: 17.7 µM |
| COc1ccccc1-c1nc2cc3ccccc3cc2nc1-c1ccccc1OC | inconclusive: 12.6 µM [inhibitor, partial curve] |
| O=C(CNc1cccc2ccccc12)c1ccc([N+](=O)[O-])cc1 | inconclusive: 1.99 µM [inhibitor, full curve] |
| CC1=C(C(=O)N2CCOCC2)C(c2ccc(C)cc2)NC(=S)N1 (configuration not stated) | inconclusive: 28.1 µM [inhibitor, single point] |
| COc1ccc(C(=O)NC(=S)NNC(=O)c2cccnc2)cc1 | inactive |
| O=c1cc(CN2CCOCC2)c2ccc(O)c(O)c2o1 | inconclusive: 20 µM [inhibitor, single point] |
| CCOC(=O)N1CCN(C(=O)CCn2nc(-c3ccccc3)ccc2=O)CC1 | inactive |
| O=C(O)CCc1ccc(S(=O)(=O)Nc2ccccc2C(=O)NCCc2ccccc2)cc1 | inactive |
| COc1ccc(NC(=O)N2CCCC(c3nc(-c4ccc(C(C)C)cc4)no3)C2)cc1 (configuration not stated) | inactive |
| C=CCSc1nnc(NC(=O)CSc2nnc(C)s2)s1 | inconclusive: 15.8 µM [inhibitor, partial curve] |
| Cc1cc(C)c2sc(NC(=O)c3ccc([N+](=O)[O-])o3)nc2c1 | inconclusive: 22.4 µM [inhibitor, partial curve] |
| Cn1c(=O)c2cn(-c3cccc4ccccc34)cc2n(C)c1=O | inconclusive: 12.6 µM [inhibitor, partial curve, poor fit] |
| CCn1c(O)c(C=Nc2ccccc2)sc1=S | inconclusive: 17.7 µM [inhibitor, single point] |
